# Some of the results follow.
# Key:
# Experiment in all cases: glycan array binding signal (z-score within array); higher = stronger binding
# Conditions in all cases: glycan notation: IUPAC condensed, linker removed
# Fuc(a1-2)Gal = target: Fuc(a1-2)Gal
# How it was run: (§1)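 The Consortium for Functional Glycomics database supplied 3228 glycan arrays, of which those lacking an available protein sequence were dropped. The binding signal, a within-array Z-score, was averaged across arrays of the same protein sequence and across linkers. Negative scores can be read as non-binding.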
# Fuc(a1-2)Gal(b1-3)GalNAc = target: Fuc(a1-2)Gal(b1-3)GalNAc
# How it was run: as §1
# [1] = target: Fuc(a1-2)Gal(b1-3)GalNAc(b1-3)Gal
# How it was run: as §1
# [2] = target: Fuc(a1-2)Gal(b1-3)GalNAc(b1-3)Gal(a1-4)Gal(b1-4)Glc
# How it was run: as §1
# [3] = target: Fuc(a1-2)Gal(b1-3)GalNAc(b1-4)[Neu5Ac(a2-3)]Gal(b1-4)Glc
# How it was run: as §1
# Fuc(a1-2)Gal(b1-3)GlcNAc = target: Fuc(a1-2)Gal(b1-3)GlcNAc
# How it was run: as §1
# [4] = target: Fuc(a1-2)Gal(b1-3)GlcNAc(b1-2)Man(a1-3)[Fuc(a1-2)Gal(b1-3)GlcNAc(b1-2)Man(a1-6)]Man(b1-4)GlcNAc(b1-4)GlcNAc
# How it was run: as §1
# [5] = target: Fuc(a1-2)Gal(b1-3)GlcNAc(b1-3)Gal(b1-4)Glc
# How it was run: as §1
# [6] = target: Fuc(a1-2)Gal(b1-3)GlcNAc(b1-3)[Gal(b1-4)[Fuc(a1-3)]GlcNAc(b1-6)]Gal(b1-4)Glc
# How it was run: as §1
# [7] = target: Fuc(a1-2)Gal(b1-3)[Fuc(a1-4)]GlcNAc
# How it was run: as §1
# [8] = target: Fuc(a1-2)Gal(b1-3)[Fuc(a1-4)]GlcNAc(b1-2)Man(a1-3)[Fuc(a1-2)Gal(b1-3)[Fuc(a1-4)]GlcNAc(b1-2)Man(a1-6)]Man(b1-4)GlcNAc(b1-4)GlcNAc
# How it was run: as §1
# Fuc(a1-2)Gal(b1-4)Glc = target: Fuc(a1-2)Gal(b1-4)Glc
# How it was run: as §1
# Fuc(a1-2)Gal(b1-4)Glc6S = target: Fuc(a1-2)Gal(b1-4)Glc6S
# How it was run: as §1
# Fuc(a1-2)Gal(b1-4)GlcNAc = target: Fuc(a1-2)Gal(b1-4)GlcNAc
# How it was run: as §1
# [9] = target: Fuc(a1-2)Gal(b1-4)GlcNAc(b1-2)Man(a1-3)[Fuc(a1-2)Gal(b1-4)GlcNAc(b1-2)Man(a1-6)]Man(b1-4)GlcNAc(b1-4)GlcNAc
# How it was run: as §1
# [10] = target: Fuc(a1-2)Gal(b1-4)GlcNAc(b1-3)Gal(b1-4)GlcNAc
# How it was run: as §1
# [11] = target: Fuc(a1-2)Gal(b1-4)GlcNAc(b1-3)Gal(b1-4)GlcNAc(b1-3)Gal(b1-4)GlcNAc
# How it was run: as §1
# [12] = target: Fuc(a1-2)Gal(b1-4)GlcNAc6S
# How it was run: as §1
# [13] = target: Fuc(a1-2)Gal(b1-4)[Fuc(a1-3)]GlcNAc
# How it was run: as §1
# [14] = target: Fuc(a1-2)Gal(b1-4)[Fuc(a1-3)]GlcNAc(b1-2)Man(a1-3)[Fuc(a1-2)Gal(b1-4)[Fuc(a1-3)]GlcNAc(b1-2)Man(a1-6)]Man(b1-4)GlcNAc(b1-4)GlcNAc
# How it was run: as §1
# [15] = target: Fuc(a1-2)Gal(b1-4)[Fuc(a1-3)]GlcNAc(b1-3)Gal(b1-4)[Fuc(a1-3)]GlcNAc
# How it was run: as §1
# [16] = target: Fuc(a1-2)Gal(b1-4)[Fuc(a1-3)]GlcNAc(b1-3)Gal(b1-4)[Fuc(a1-3)]GlcNAc(b1-3)Gal(b1-4)[Fuc(a1-3)]GlcNAc
# How it was run: as §1
# Fuc(a1-2)Gal6S(b1-4)Glc = target: Fuc(a1-2)Gal6S(b1-4)Glc
# How it was run: as §1
# [17] = target: Fuc(a1-2)Gal6S(b1-4)Glc6S
# How it was run: as §1
# [18] = target: Fuc(a1-2)Gal6S(b1-4)GlcNAc
# How it was run: as §1
# Fuc(a1-2)[Gal(a1-3)]Gal = target: Fuc(a1-2)[Gal(a1-3)]Gal
# How it was run: as §1
# [19] = target: Fuc(a1-2)[Gal(a1-3)]Gal(b1-3)GlcNAc
# How it was run: as §1
# [20] = target: Fuc(a1-2)[Gal(a1-3)]Gal(b1-3)GlcNAc(b1-2)Man(a1-3)[Fuc(a1-2)[Gal(a1-3)]Gal(b1-3)GlcNAc(b1-2)Man(a1-6)]Man(b1-4)GlcNAc(b1-4)GlcNAc
# How it was run: as §1
# [21] = target: Fuc(a1-2)[Gal(a1-3)]Gal(b1-4)Glc
# How it was run: as §1
# [22] = target: Fuc(a1-2)[Gal(a1-3)]Gal(b1-4)GlcNAc
# How it was run: as §1
binder,measurement,setting,value
"Eap (Staphylococcus aureus), A0A7L5PYT7 (protein) MKFKSLITTTLALGVLASTGANFNNNEAAAAAKPLDKSSSSLHHGYSKVHVPYAITVNGTSQNILSSLTFNKNQNISYKDLEDRVKSVLKSDRGISDIDLRLSKQAKYTVYFKNGTKKVIDLKAGIYTADLINTSEIKAININVDTKKQVEDKKKDKANYQVPYTITVNGTSQNILSNLTFNKNQNISYKDLEDKVKSVLESNRGITDVDLRLSKQAKYTVNFKNGTKKVIDLKSGIYTANLINSSDIKSININVDTKKHIENKAKRNYQVPYSINLNGTSTNILSNLSFSNKPWTNYKNLTSQIKSVLKHDRGISEQDLKYAKKAYYTVYFKNGGKRILQLNSKNYTANLVHAKDVKRIEITVKTGTKAKADRYVPYTIAVNGTSTPILSDLKFTGDPRVGYKDISKKVKSVLKHDRGIGERELKYAKKATYTVHFKNGTKKVININSNISQLNLLYVQDIKKIDIDVKTGTKAKADSYVPYTIAVNGTSTPILSKLKISNKQLISYKYLNDKVKSVLKSERGISDLDLKFAKQAKYTVYFKNGKKQVVNLKSDIFTPNLFSAKDIKKIDIDVKQYTKSKKNK",glycan array binding signal (z-score),Fuc(a1-2)Gal,-0.414
same,glycan array binding signal (z-score),Fuc(a1-2)Gal(b1-3)GalNAc,0.14
same,glycan array binding signal (z-score),[1],-0.474
same,glycan array binding signal (z-score),[2],0.012
same,glycan array binding signal (z-score),[3],-0.367
same,glycan array binding signal (z-score),Fuc(a1-2)Gal(b1-3)GlcNAc,0.041
same,glycan array binding signal (z-score),[4],-0.431
same,glycan array binding signal (z-score),[5],-0.377
same,glycan array binding signal (z-score),[6],-0.483
same,glycan array binding signal (z-score),[7],-0.514
same,glycan array binding signal (z-score),[8],0.259
same,glycan array binding signal (z-score),Fuc(a1-2)Gal(b1-4)Glc,-0.374
same,glycan array binding signal (z-score),Fuc(a1-2)Gal(b1-4)Glc6S,0.006
same,glycan array binding signal (z-score),Fuc(a1-2)Gal(b1-4)GlcNAc,-0.415
same,glycan array binding signal (z-score),[9],-0.43
same,glycan array binding signal (z-score),[10],-0.412
same,glycan array binding signal (z-score),[11],-0.357
same,glycan array binding signal (z-score),[12],-0.281
same,glycan array binding signal (z-score),[13],2.21
same,glycan array binding signal (z-score),[14],-0.209
same,glycan array binding signal (z-score),[15],-0.313
same,glycan array binding signal (z-score),[16],-0.197
same,glycan array binding signal (z-score),Fuc(a1-2)Gal6S(b1-4)Glc,0.262
same,glycan array binding signal (z-score),[17],1.25
same,glycan array binding signal (z-score),[18],-0.45
same,glycan array binding signal (z-score),Fuc(a1-2)[Gal(a1-3)]Gal,-0.341
same,glycan array binding signal (z-score),[19],0.027
same,glycan array binding signal (z-score),[20],-0.498
same,glycan array binding signal (z-score),[21],-0.059
same,glycan array binding signal (z-score),[22],-0.309

# Reference: the supplement of paper PMC8728848
